From publication PMC10290086
Results are given in words; binding and its absence hold for the method and conditions named. In cells and extracts the contact can be indirect. Some entries that bind do so weakly or less than the wild type. For some assays here: Sequences can lack the tags named with a protein.

Protein sequences, listed by entry. Tags and fused reporters are not part of them. Residues count along the entry.
UniProt P52948, residues 1-880: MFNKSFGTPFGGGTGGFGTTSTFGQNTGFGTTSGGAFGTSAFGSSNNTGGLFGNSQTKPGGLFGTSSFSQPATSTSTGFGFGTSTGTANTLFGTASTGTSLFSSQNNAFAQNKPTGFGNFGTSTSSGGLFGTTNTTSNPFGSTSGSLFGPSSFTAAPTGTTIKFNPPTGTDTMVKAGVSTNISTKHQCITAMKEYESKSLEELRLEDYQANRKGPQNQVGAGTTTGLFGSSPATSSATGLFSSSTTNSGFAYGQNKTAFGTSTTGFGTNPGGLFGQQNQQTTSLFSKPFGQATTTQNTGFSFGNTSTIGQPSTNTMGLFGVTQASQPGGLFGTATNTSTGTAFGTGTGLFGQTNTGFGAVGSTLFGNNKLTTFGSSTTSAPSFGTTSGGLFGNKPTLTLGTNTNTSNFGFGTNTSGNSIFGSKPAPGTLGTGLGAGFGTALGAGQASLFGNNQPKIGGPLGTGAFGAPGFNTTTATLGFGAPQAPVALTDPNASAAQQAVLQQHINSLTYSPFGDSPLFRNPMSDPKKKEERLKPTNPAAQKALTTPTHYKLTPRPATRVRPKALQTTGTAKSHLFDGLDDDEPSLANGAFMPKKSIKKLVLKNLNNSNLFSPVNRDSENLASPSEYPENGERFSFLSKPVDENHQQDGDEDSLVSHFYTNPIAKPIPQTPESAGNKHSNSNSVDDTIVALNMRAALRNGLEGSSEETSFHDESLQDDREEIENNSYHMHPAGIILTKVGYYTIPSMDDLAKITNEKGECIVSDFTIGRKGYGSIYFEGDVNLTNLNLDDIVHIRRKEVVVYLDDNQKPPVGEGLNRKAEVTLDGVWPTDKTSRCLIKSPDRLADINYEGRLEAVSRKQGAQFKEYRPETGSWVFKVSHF
UniProt Q13547: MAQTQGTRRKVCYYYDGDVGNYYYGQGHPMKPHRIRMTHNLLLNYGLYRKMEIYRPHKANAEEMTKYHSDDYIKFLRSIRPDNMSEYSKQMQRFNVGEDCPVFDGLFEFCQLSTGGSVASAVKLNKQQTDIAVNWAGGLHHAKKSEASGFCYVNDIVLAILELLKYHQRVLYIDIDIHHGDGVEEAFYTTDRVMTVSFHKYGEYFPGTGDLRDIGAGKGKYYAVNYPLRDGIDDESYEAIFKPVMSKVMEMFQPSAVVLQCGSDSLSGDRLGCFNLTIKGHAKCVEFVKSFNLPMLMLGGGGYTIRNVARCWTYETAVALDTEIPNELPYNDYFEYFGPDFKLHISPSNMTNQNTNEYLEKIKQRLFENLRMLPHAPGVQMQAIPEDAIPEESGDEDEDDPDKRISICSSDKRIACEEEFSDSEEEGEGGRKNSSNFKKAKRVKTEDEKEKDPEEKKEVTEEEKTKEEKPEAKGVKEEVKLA
UniProt P12270: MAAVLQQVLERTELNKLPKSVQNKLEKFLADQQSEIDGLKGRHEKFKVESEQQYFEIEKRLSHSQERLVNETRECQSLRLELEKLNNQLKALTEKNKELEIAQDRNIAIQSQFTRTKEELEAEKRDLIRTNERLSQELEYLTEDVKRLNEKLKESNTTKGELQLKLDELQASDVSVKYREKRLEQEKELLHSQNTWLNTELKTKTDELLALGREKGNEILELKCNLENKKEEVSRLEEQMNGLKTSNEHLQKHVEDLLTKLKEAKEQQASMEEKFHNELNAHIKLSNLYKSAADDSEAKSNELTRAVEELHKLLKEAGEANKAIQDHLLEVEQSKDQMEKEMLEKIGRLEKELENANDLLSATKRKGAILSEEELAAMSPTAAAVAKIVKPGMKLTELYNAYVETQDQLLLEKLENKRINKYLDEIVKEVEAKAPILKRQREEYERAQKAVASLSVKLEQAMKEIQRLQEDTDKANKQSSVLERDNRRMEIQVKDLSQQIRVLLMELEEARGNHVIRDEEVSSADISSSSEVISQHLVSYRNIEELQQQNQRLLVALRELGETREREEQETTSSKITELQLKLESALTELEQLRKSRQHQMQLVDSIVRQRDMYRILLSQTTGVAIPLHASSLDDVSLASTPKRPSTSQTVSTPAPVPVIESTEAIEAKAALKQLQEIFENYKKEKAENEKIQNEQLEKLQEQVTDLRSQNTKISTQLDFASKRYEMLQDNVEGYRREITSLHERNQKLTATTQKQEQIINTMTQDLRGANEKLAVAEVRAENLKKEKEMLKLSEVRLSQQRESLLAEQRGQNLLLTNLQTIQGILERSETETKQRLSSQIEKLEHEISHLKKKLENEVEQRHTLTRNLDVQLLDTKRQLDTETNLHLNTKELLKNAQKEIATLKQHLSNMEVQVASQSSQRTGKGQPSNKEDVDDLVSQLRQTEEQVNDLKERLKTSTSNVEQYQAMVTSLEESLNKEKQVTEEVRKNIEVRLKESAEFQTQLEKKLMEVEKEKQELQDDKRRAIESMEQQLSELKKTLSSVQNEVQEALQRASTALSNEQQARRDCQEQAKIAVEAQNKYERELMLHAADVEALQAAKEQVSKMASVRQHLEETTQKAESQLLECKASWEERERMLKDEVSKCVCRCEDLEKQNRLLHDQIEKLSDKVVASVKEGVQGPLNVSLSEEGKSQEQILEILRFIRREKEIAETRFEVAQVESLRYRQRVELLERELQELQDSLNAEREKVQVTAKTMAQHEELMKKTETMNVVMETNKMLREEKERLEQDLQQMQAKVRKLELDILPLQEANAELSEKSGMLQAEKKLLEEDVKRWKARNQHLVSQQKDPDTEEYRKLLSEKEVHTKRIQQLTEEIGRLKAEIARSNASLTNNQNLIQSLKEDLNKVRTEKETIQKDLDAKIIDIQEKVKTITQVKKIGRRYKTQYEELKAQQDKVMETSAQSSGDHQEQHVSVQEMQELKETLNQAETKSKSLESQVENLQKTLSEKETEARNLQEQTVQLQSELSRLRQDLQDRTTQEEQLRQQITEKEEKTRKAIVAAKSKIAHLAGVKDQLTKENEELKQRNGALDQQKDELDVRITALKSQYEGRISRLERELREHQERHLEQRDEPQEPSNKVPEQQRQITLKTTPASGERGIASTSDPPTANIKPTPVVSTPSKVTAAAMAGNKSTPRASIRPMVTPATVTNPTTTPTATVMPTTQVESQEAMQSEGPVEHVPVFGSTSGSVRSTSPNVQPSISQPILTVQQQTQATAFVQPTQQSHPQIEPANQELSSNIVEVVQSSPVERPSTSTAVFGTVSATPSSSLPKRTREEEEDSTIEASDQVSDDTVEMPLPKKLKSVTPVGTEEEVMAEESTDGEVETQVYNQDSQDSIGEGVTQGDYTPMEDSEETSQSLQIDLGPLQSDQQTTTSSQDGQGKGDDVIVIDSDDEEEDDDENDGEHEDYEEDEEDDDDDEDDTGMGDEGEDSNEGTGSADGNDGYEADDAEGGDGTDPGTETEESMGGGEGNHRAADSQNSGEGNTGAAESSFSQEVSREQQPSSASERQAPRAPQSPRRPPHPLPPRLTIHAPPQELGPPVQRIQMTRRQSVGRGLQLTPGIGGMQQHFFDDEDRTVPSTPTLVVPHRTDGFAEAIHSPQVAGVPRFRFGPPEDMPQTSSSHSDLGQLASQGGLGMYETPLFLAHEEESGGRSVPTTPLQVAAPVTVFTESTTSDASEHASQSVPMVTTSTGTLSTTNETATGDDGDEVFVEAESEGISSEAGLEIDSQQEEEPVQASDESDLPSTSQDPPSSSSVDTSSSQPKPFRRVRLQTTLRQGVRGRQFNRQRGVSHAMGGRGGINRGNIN

What was measured:
[1] = target: NUP98 (human (endogenous in primary keratinocytes)) (UniProt P52948); assay: co-IP; crosslinking co-immunoprecipitation: undifferentiated keratinocytes crosslinked with 1% formaldehyde for 10 min, nuclei lysed in PBS with 1% NP-40, 0.5% sodium deoxycholate, 0.1% SDS, 10 mM EDTA, sonicated; NUP98 or RAE1 antibody on protein G beads; blot for HDAC1
[2] = target: T1, RAE1 (human (endogenous in primary keratinocytes)) (UniProt P78406); assay: as above
T1 sequence: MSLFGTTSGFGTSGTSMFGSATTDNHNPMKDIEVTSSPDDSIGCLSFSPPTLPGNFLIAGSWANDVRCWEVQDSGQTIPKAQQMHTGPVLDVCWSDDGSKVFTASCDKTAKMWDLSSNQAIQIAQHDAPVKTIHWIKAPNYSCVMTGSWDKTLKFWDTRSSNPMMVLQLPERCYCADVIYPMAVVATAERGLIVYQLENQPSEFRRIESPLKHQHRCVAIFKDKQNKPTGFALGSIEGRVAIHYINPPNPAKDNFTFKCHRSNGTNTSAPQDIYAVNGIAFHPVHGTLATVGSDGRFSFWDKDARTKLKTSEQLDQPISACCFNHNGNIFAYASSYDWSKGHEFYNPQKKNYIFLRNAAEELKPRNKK

[3] = target: T1, RAE1 (human (endogenous in primary keratinocytes)); assay: co-IP; nuclear extract of undifferentiated keratinocytes (50 mM Tris pH 8, 0.05% NP-40, 10% glycerol, 2 mM MgCl2, 250 mM NaCl); NUP98 or RAE1 antibody or mouse IgG control on protein G beads, overnight at 4 °C; also with or without RNase A (50 ug/mL, 20 min, 30 °C); blots for NUP98, RAE1, TPR and with mAb414
[4] = target: T2, HA-tagged RAE1 (UniProt P78406); assay: co-IP; HA-tagged RAE1 expressed in progenitor-state keratinocytes; NUP98 detected in the precipitate (Supplementary Fig. 3a)
T2 sequence: T1 sequence

binding [1] | binding [2] | binding [3] | binding [4] | Substance
binds | binds |  |  | HDAC1 (from UniProt Q13547 1-482)
 |  | binds | binds | NUP98 (from UniProt P52948 1-880)
 |  | no binding |  | TPR (from UniProt P12270 1-2363)
